Source: PubChem BioAssay AID1030 (National Center for Advancing Translational Sciences (NCATS), 2008)
Values joined by “and” are separate entries in the source; they are usually repeats but may differ in a detail not shown here. Equal entries are not always repeated. The campaign covered roughly 220,000 compounds. About 16,000 (7.3%) were called active. This list was built around the results that the source calls inconclusive (neither active nor inactive); the mix of calls is not that of the screen. Calls follow the shape of the dose curve; as a rule, active = well fitted inhibition curve with a large enough effect (not every such curve was filed as active); inconclusive = small, poorly fitted or top-dose-only effect, or another doubt; inactive = no such curve, though single readings can be large or run the other way. No potency is given beside an inconclusive call; the fits are too rough. The source holds several records for some structures; these can differ, active in one and inactive in another.

What follows are compounds tested against Aldehyde dehydrogenase 1A1 (Homo sapiens) (UniProt P00352) (assay: qHTS Assay for Inhibitors of Aldehyde Dehydrogenase 1 (ALDH1A1)). Settings: Purified ALDH1A1, NADH fluorescence, propionaldehyde substrate; series mostly up to 75.3 µM.
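For activity, negative = inhibition in this document: plate controls were no enzyme wells and a reference inhibitor.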
Potency is read from the fitted curve at half-maximal effect; tags tell the direction and shape of the fitted curve.

UniProt P00352, sequence (P00352 whole entry, looked up): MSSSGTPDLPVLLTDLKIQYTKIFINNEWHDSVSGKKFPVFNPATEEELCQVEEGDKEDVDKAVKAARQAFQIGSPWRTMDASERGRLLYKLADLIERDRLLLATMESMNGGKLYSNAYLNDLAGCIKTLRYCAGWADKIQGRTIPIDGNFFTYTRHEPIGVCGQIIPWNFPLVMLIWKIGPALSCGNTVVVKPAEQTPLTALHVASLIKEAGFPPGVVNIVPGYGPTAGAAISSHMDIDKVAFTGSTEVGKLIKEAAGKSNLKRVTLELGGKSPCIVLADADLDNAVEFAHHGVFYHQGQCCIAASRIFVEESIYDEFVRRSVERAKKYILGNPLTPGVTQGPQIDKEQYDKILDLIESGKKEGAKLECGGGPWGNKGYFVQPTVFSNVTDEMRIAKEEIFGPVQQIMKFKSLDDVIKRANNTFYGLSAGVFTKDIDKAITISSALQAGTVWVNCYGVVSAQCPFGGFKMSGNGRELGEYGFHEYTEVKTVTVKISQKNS

SMILES	Potency	activity, negative = inhibition
CCOCCn1c(CN2CCN(c3ccc(F)cc3)CC2)nc2c1c(=O)n(C)c(=O)n2C	inconclusive [inhibitor, single point]	
COc1ccc(N=C2C(=Nc3ccc(OC)cc3)N(c3ccc(N(C)C)cc3)C(=S)N2c2ccc(OC)cc2)cc1	inconclusive [inhibitor, full curve]	
CCOC(=O)c1cnc(-n2nc(C)cc2C)nc1N(C)C	inconclusive [inhibitor, partial curve, poor fit]	
Cc1cnc(C(=O)Nc2ccc(N3CCOCC3)cc2)cn1	inconclusive [inhibitor, single point]	
C=CCn1c(-c2ccc(OC)c(OC)c2)n[nH]c1=S	inactive	
O=C(NCc1ccco1)C(=O)NCC1OCCCN1S(=O)(=O)c1ccccc1 (centres undefined)	active: 14.1 µM	
O=C(NCc1ccco1)c1ccc2c(=O)n(-c3ccccc3)c(=S)[nH]c2c1	active: 0.224 µM	
CCN(CC(=O)O)CC(=O)O		inactive: -4.27% [at 13.5 µM]
O=C1CC(NCc2ccncc2)C(=O)N1c1ccccc1 (centres undefined)	inconclusive [inhibitor, single point]	
O=S(=O)(c1ccc(NC(=S)NN=C2CCCCC2)cc1)N1CCOCC1	active: 14.1 µM	
CCn1c(-c2ccc(-c3ccccc3)cc2)c[nH]c1=S	inconclusive [inhibitor, partial curve]	
CCCCSc1nnc2nc(C)cc(C)n12	inactive	
CC1=C(C(=O)OCCOC(C)C)C(c2cccnc2)C2=C(CCCC2=O)N1 (centres undefined)	inconclusive [inhibitor, partial curve]	
Cc1cc(/C=C2\SC(=S)NC2=O)c(C)n1-c1cccc(O)c1	inconclusive [inhibitor, single point]	
CCOc1nc(-c2ccc(OC)cc2)ccc1-c1noc(-c2cc(OC)c(OC)c(OC)c2)n1	inconclusive [inhibitor, full curve]	
CCOC(=S)SCC(=O)Nc1nc(-c2ccc(Br)cc2)cs1	inactive	
CC(CCc1ccccc1)NC(=O)c1cccs1 (centres undefined)	inactive	
Cc1nc2sc3c(c2c2nnc(SCC(=O)NCc4ccco4)n12)CCCC3	active: 14.1 µM	
CCCn1cnc2cc(NC(=O)c3cccs3)ccc21	inactive	
CCOC(=O)c1c(NC(C)=O)sc2c(OCC(O)CN(CC)CC)c(Br)ccc12 (centres undefined)	inconclusive [inhibitor, single point]	
COCCCn1c(=O)c2ccccc2c2ccccc2c1=O	inconclusive [inhibitor, single point]	
Cc1cc(C(=O)CSc2nnc(C3COc4ccccc4O3)n2C)c(C)n1-c1ccc(F)cc1 (centres undefined)	inconclusive [inhibitor, partial curve]	
COCCNC(=S)N1CCC(C(=O)c2ccc3c(c2)OCCO3)CC1	inconclusive [inhibitor, single point]	
O=C(COC(=O)c1cc(=O)[nH]c2ccccc12)Nc1nc(-c2cccc(Br)c2)cs1	inconclusive [inhibitor, single point]	
O=C(N/N=C/C=C\c1ccco1)c1cccs1	active: 28.2 µM	

SMILES	Potency	activity, negative = inhibition
COCCn1c(C)cc(C2=NNC(=Nc3ccc(F)cc3)SC2)c1C	active: 10 µM	
COc1ccc(Cn2ccnc2)cc1Br	inconclusive [inhibitor, single point]	
CN1C(=O)c2ccccc2N(C)C1c1ccc2c(c1)OCO2 (centres undefined)	inconclusive [inhibitor, partial curve]	
CCN(CC)S(=O)(=O)c1ccc(C2=NOC3(C2)N(C)c2ccccc2C3(C)C)cc1 (centres undefined)	inconclusive [inhibitor, single point]	
CC(=O)OC/C=C(C)/C=C/C=C(C)/C=C/C1=C(C)CCCC1(C)C	active: 14.1 µM and active: 22.4 µM	
CCCCCCNc1c([N+](=O)[O-])c(=O)sc2ccccc12	inactive	
CC1CN(C(=O)c2cc3c(s2)CCC3)CC(C)O1 (centres undefined)	inconclusive [inhibitor, single point]	
COc1ccc(CSc2nnnn2-c2ccccc2)cc1	active: 11.2 µM	
Cc1cc(C(=O)COC(=O)CNC(=O)c2ccc(F)cc2)c(C)n1Cc1ccco1	inactive	
COCCNc1nc(-c2cc(C)n(CCc3ccc(OC)cc3)c2C)cs1	active: 10 µM	
COc1ccc(C)cc1N(C)C(=O)c1coc(=O)c2ccccc12	inconclusive [inhibitor, single point]	
NNC(=O)c1[nH]c2ccc(Br)cc2c1-c1ccccc1	active: 0.158 µM	
COc1ccc2oc(=O)c(C(=O)N3CCCc4ccccc43)cc2c1	inconclusive [inhibitor, partial curve]	
COCCN1C(=O)C(=O)/C(=C(/O)c2ccc3c(c2)OCCO3)C1c1ccc(C(=O)OC)cc1 (centres undefined)	inactive	
O=C(Nc1ccc(S(=O)(=O)NC2=NCCCCC2)cc1)c1ccc(=O)[nH]c1	inactive	
CCNc1ccc(C2(O)C(=O)c3ccccc3C2=O)cc1	inactive	
O=C(COc1ccccc1F)Nc1nnc(-c2ccncc2)s1	inconclusive [inhibitor, partial curve]	
O=C1N(Cc2cccnc2)C[C@@H]2C[C@@H](c3cccc(OC4CCCC4)c3)N3CCC[C@@]123	inactive	
COc1ccc(CN(CCC#N)C(=S)NC(=O)c2ccccc2)cc1	active: 25.1 µM	
CCN(CC)CCCNC(=S)N(Cc1ccco1)Cc1cc2cc3c(cc2[nH]c1=O)OCCO3	inconclusive [inhibitor, single point]	
COc1ccc(-c2[nH]ncc2/C=C(/C#N)C(=O)NC2CCCCCC2)cc1	inconclusive [inhibitor, single point]	
COc1ccc2nc(N/C(N)=N/C(=S)Nc3c(C)cccc3C)nc(C)c2c1	inconclusive [inhibitor, single point]	
CCn1c(-c2ccc(OC)c(OC)c2)n[nH]c1=S	inconclusive [inhibitor, single point]	
CC(C)n1c(N2CCN(C(=O)NCc3ccccc3)CC2)nc2ccccc21	inconclusive [inhibitor, single point]	
Cc1ccc(S(=O)(=O)N2CCC(C(=O)NCCCN3CCCCCC3)CC2)cc1	inconclusive [inhibitor, single point]	

SMILES	Potency	activity, negative = inhibition
COc1ccccc1Oc1nc2c(c(=O)n(Cc3ccccc3F)c(=O)n2C)n1C	active: 8.91 µM	
O=c1cc(-c2ccccc2)[nH]c2ccccc12	inactive	
COc1ccc(CNC(=O)c2cnc(C)cn2)cc1	inconclusive [inhibitor, single point]	
COc1cccc(C2C=C(c3cccs3)Nc3ncnn32)c1OC (centres undefined)	inconclusive [inhibitor, single point]	
COc1cc(/C=N/NC(=O)Cc2cccs2)c([N+](=O)[O-])cc1OC	inconclusive [inhibitor, partial curve]	
Cc1ccc(-c2nnc3n2N=C(c2ccccc2)CS3)cc1	inconclusive [inhibitor, single point]	
Cc1nn(-c2ccccc2)c(Cl)c1/C=N/NS(=O)(=O)c1ccc(Br)cc1	inconclusive [inhibitor, single point]	
COC(=O)COc1ccc2c(-c3cccc([N+](=O)[O-])c3)cc(=O)oc2c1	inconclusive [inhibitor, single point]	
CC(=O)NNc1nc(-c2ccccc2)cs1	inconclusive [inhibitor, single point]	
Cc1ccc2[nH]c3c(NCc4ccco4)ncnc3c2c1	inconclusive [inhibitor, single point]	
C=CCCC(=O)Nc1nc(C)c(-c2csc(Nc3cc(OC)ccc3OC)n2)s1	inactive	
Cn1c(=O)c2cc(S(=O)(=O)Nc3ccc4c(c3)OCO4)ccc2n(C)c1=O	inconclusive [inhibitor, single point]	
CCOC(=O)c1c(C)[nH]c(C(=O)OCC(=O)N(C)C2CCS(=O)(=O)C2)c1C (centres undefined)	inactive	
Cc1cnc(C(=O)Nc2ccc(C(=O)N(C)C3CCCCC3)cc2)cn1	inactive	
O=c1c(-c2cccc(F)c2)nc2cncnc2n1-c1ccccc1	inactive	
CCOC(=O)Cc1csc(NC(=S)NC(=O)c2ccccc2C)n1	inactive	
COc1ccc(NC(=O)c2ccc(S(=O)(=O)N3CCOCC3)cc2)c(OC)c1	inconclusive [inhibitor, single point]	
CC(=O)c1sc(NC(=O)c2c(F)cccc2F)nc1-c1ccccc1	active: 11.2 µM	
CCOC(=O)c1ccc(S(=O)(=O)N2CCN(C(=O)c3cc(=O)c4ccccc4o3)CC2)cc1	inconclusive [inhibitor, partial curve]	
COc1ccc(S(=O)(=O)NCCCCNS(=O)(=O)c2ccc(OC)cc2)cc1	active: 1.26 µM	
Cc1cc(C)cc(NC(=O)COC(=O)CCc2ccc(S(=O)(=O)N3CCOCC3)cc2)c1	inconclusive [inhibitor, single point]	
CN(C)/C=N/c1ncc(C(=O)OC(C)(C)C)s1	inconclusive [inhibitor, single point]	
COc1cccc(-c2cc(C(=O)Nc3cnn(Cc4ccc(F)cc4)c3)no2)c1	inconclusive [inhibitor, single point]	
O=C(O)c1ccc(-c2nc(-c3cccc(C(F)(F)F)c3)cs2)cc1	inconclusive [inhibitor, single point]	
